Measurements taken from PubChem BioAssay AID651820 (National Center for Advancing Translational Sciences (NCATS), 2012).
In all, about 340,000 compounds went through this assay and about 12,000 (3.5%) were called active. Inconclusive results, whose numbers are uncertain, are shown with a selection of clear calls. Calls come from the whole dose curve; as a rule, active = well fitted inhibition curve with a large enough effect; inconclusive = small, poorly fitted or top-dose-only effect, or another doubt; inactive = no such curve, though single readings can be large or run the other way. Potencies of inconclusive entries are left out as doubtful fits. Some compounds were tested as several samples or in several runs, with calls that do not always agree.

experiment: qHTS Assay for Inhibitors of Hepatitis C Virus (HCV); settings: Huh7.5.1 HCVcc-Cre (HCVcc is cell-culture hepatitis C virus) infection, luciferase reporter, 44 h; activity change, negative = inhibition: at 41.8 µM (top of the series) unless noted
How it was run: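 Antiviral activity was scored by luciferase reporter output from cells infected with HCVcc-Cre (~0.5 moi) in presence of compound, 44 h infection period, cells seeded 1,000/well 4 h prior.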
% is set by controls: 0 for no effect and ±100 for the full control effect; potency is the fitted concentration of half-maximal effect; tags give direction and shape of the fitted curve.

SMILES	Potency	activity change, negative = inhibition
C=CCn1c(SCC(=O)Nc2c(C)n(C)n(-c3ccccc3)c2=O)nc2scc(-c3ccccc3)c2c1=O	inconclusive [inhibitor, partial curve]	
CCCCOc1[nH]c2nc(-c3ccco3)n(Cc3ccco3)c(=N)c2c1C#N	inconclusive [inhibitor, single point]	
CSc1ccc(C2=CC(=O)C[C@H](c3ccc(Cl)cc3)C2)cc1		inactive: 5.86%
CCN(CC)S(=O)(=O)c1cccc(S(=O)(=O)c2cccc(S(=O)(=O)N(CC)CC)c2)c1	active: 11.2 µM	
CN(Cc1cccs1)C(=O)CCc1c[nH]c2ccccc12		inactive: -15.5%
CCn1c2ccccc2c2cc(CN3CCN(C(=O)c4ccco4)CC3)ccc21		inactive: -12.9%
CN(C)C(CNC(=O)CSc1nc2sc3c(c2c(=O)n1C)CCCC3)c1ccccc1 (stereo not drawn)	inconclusive [inhibitor, single point]	
COc1ccc2cc(/C(C)=N/NC(=O)c3cc(-c4cccnc4)nc4ccccc34)ccc2c1	inconclusive [inhibitor, full curve, poor fit]	
Cn1cc([N+](=O)[O-])c(C(=O)Nc2ccc3nc(-c4ccccc4)[nH]c3c2)n1	inconclusive [inhibitor, partial curve]	
c1ccc2c(c1)c1c(c3ccccc32)CN2CCCC2C1 (stereo not drawn)	inconclusive [inhibitor, single point]	
CCOC(=O)CNC(c1ccccc1)c1cc(Br)ccc1NC(=O)CCN1CCOCC1 (stereo not drawn)		inactive: -12.2%
COc1ccc(/C(C)=N/Nc2nccnc2Cl)cc1		inactive: -7.17%
CC(=O)c1c(C)[nH]c(C(=O)NC(C)c2ccccc2)c1C (stereo not drawn)	inconclusive [inhibitor, partial curve]	
COc1ccc(OC)c2[nH]c(=O)c(CCNC(=O)c3ccc(Br)o3)cc12	inconclusive [inhibitor, full curve]	
CCOC(=O)C1CCN(C(=O)CN(c2ccc(Oc3ccccc3)cc2)S(C)(=O)=O)CC1	inconclusive [inhibitor, single point]	
COC(=O)c1[nH]c2ccc(C)cc2c1NC(=O)CN1CCCc2ccccc21	inconclusive [inhibitor, partial curve]	
CC1(C(=O)OCC(=O)N2c3ccccc3Sc3ccccc32)CC1(Cl)Cl (stereo not drawn)	inconclusive [inhibitor, single point]	
CC(C)C[C@H](NC(=O)c1nc[nH]c1C(=O)N[C@@H](CCCCNC(=O)OC(C)(C)C)C(=O)OC(C)(C)C)C(=O)OC(C)(C)C	inconclusive [inhibitor, single point]	
CCOc1ccc(OCC(O)CN2CCN(S(=O)(=O)c3cccc(C(F)(F)F)c3)CC2)cc1 (stereo not drawn)	inconclusive [inhibitor, partial curve, poor fit]	
O=C(N=Nc1c(O)[nH]c2ccc(F)cc12)c1ccc(NS(=O)(=O)c2cccs2)cc1	inconclusive [inhibitor, single point]	
CCn1c(SCC(=O)Nc2cc(OC)c(OC)c(OC)c2)nnc1-c1cccs1	inconclusive [inhibitor, single point]	
Cc1ccccc1-c1ccc(CN2CCN(C)C(CCO)C2)cc1 (stereo not drawn)	inconclusive [inhibitor, single point]	
C=CCNc1scc(-c2ccccc2)[n+]1CC=C		inactive: 3.32%

SMILES	Potency	activity change, negative = inhibition
CCOC(=O)Cc1csc(NC(=O)c2ccoc2C)n1	inconclusive [inhibitor, single point]	
Cc1ccc(-n2nc3c(N4CCC(C(=O)N5CCC(C(N)=O)CC5)CC4)nnc(C)c3c2C)cc1		inactive: -7.96%
COc1ccc(Nc2nc(NCc3ccco3)nc(N/N=C/c3ccc(O)cc3)n2)cc1	inconclusive [inhibitor, partial curve]	
CCC(C)n1c(C)nc2c(c1=O)c1nc3ccccc3nc1n2CCC1=CCCCC1 (stereo not drawn)		inactive: 17.4%
C[C@H](CO)N1C[C@H](C)[C@@H](CN(C)C(=O)NC2CCCCC2)Oc2c(NC(=O)C3CC3)cccc2C1=O		inactive: 40%
O=C(O)c1cccc(-c2ccc(/C=C3/SC(=Nc4ccccc4)N(Cc4cccnc4)C3=O)o2)c1		inactive: 5.47%
COC(=O)C(C)Oc1cc(C)ccc1COc1ccc(-n2nc(C)n(C(F)F)c2=O)cc1 (stereo not drawn)		inactive: 0.946%
O=C1Nc2cccnc2N(C(=O)CCl)c2ccccc21	active: 15.8 µM	
CC(=O)Nc1ccc(NC(=O)C(C)OC(=O)c2ccc(S(=O)(=O)N3CCCCCC3)cc2)cc1 (stereo not drawn)	inconclusive [inhibitor, single point]	
CC(C)N1CCc2c(sc(NC(=O)c3ccc(C(=O)c4ccccc4)cc3)c2C(N)=O)C1	inconclusive [inhibitor, partial curve, poor fit]	
CCc1cc(Cn2nc(-c3ccccc3)cc2C(=O)NCc2cccc(C(F)(F)F)c2)on1	inconclusive [inhibitor, single point]	
FC(F)(F)c1ccnc(Sc2n[nH]c(C(F)(F)F)n2)c1		inactive: 1.84%
O=C(NCC(c1cccnc1)N1CCN(c2ccccc2F)CC1)c1cccc(Cl)c1 (stereo not drawn)	inconclusive [inhibitor, single point]	
O=[N+]([O-])c1ccc(N2CCN(c3ccccc3F)CC2)nc1		inactive: -4.66%
CCc1ccc(NC(=O)C(C)OC(=O)c2c(C)nn(Cc3ccccc3)c2Cl)cc1 (stereo not drawn)	active: 11.2 µM	
O=C(NCCCn1ccnc1)C1c2ccccc2Oc2ccccc21		inactive: 3.66%
Cc1ccccc1-c1nc(CS(=O)(=O)CC(=O)N(C)C2CCCCC2)c(C)o1	active: 11.2 µM	
O=C(Nc1ccc(CN2CCOCC2)cc1)c1ccc(Cl)cc1Cl	active: 10 µM	
Cc1ccc(S(=O)(=O)N2CCN(S(=O)(=O)N(C)C)CC2)c(C)c1	inconclusive [inhibitor, partial curve, poor fit]	
O=C1CN(c2nc(-c3cccnc3)nc3sc4c(c23)CCCC4)CCN1	inconclusive [inhibitor, single point]	
O=C1C=C(c2ccc(Oc3ccccc3)cc2)C[C@@H](c2ccc3c(c2)OCO3)C1	inconclusive [inhibitor, partial curve]	
CCOC(=O)C1=CN(Cc2cccc(F)c2)S(=O)(=O)N(CC)C1c1ccc(C(F)(F)F)cc1 (stereo not drawn)	inconclusive [inhibitor, partial curve]	
CC(C)NS(=O)(=O)c1ccc2c(c1)NCC2		inactive: 4.91%

SMILES	Potency	activity change, negative = inhibition
CC(Nc1nc(N2CCN(S(C)(=O)=O)CC2)nc2ccccc12)c1ccccc1 (stereo not drawn)	inactive	
CCC(=O)N(CCC(c1ccccc1)c1ccco1)Cc1cccs1 (stereo not drawn)	inconclusive [inhibitor, partial curve]	
Cc1c(C(=O)NCCC2=CCCCC2)sc2ncnc(N3CCCCC3C)c12 (stereo not drawn)	inconclusive [inhibitor, partial curve]	
CCCCNC(=O)c1onc(CSc2cccc(OC)c2)c1C(=O)NCCCC	inconclusive [inhibitor, partial curve]	
Cc1ccc(C)c(OCCC(=O)N2CCN(S(=O)(=O)c3ccc([N+](=O)[O-])cc3)CC2)c1		inactive: -3.62%
O=C(OCC(=O)N(Cc1ccccc1)Cc1ccccc1)c1cccc(O)c1		inactive: 7.6%
CC1CCN(CC(O)COCCC23CC4CC(CC(C4)C2)C3)CC1 (stereo not drawn)	active: 35.5 µM	
O=C(c1cc(-c2ccc(Cl)cc2Cl)on1)N1CCOCC1		inactive: -4.61%
COc1ccccc1/C=N/NS(=O)(=O)c1ccccc1		inactive: 10.6%
Cc1cc(C(=O)Nc2ccc(Cl)c(S(=O)(=O)N3CCOCC3)c2)c2ccccc2n1	inconclusive [inhibitor, partial curve]	
COc1ccc(-c2cc(C(F)F)n3ncc(C(=O)N4CCN(C(=O)c5ccco5)CC4)c3n2)cc1	inconclusive [inhibitor, partial curve]	
CCn1cc(/C=C/C(=O)Nc2ccn(Cc3c(F)c(F)cc(F)c3F)n2)cn1	inconclusive [inhibitor, partial curve]	
CCOc1ccc(Br)cc1C(=O)N/N=C/c1c[nH]c2ccccc12	active: 12.6 µM	
CCOC(=O)c1c(SCCN2CCCC2)n(-c2ccccc2)c(=S)n(-c2ccccc2)c1=O	inconclusive [inhibitor, single point]	
N#Cc1ccc(COC(=O)c2ccc(N3CCCC3)c([N+](=O)[O-])c2)cc1	inconclusive [inhibitor, partial curve]	
Cc1ccc(-n2c(SCC(=O)N/N=C/c3c(C)nn(-c4ccccc4)c3C)nc3ccccc3c2=O)cc1	inconclusive [inhibitor, partial curve]	
Cn1c(=O)c(C(=O)c2ccc(S(C)(=O)=O)c(Cl)c2Cl)c(O)c2ccccc21		inactive: 3.05%
O=C(NCC1CCCCC1)c1ccc(F)cc1Cl	inconclusive [inhibitor, single point]	
COc1cc2sc3cc(NCc4ccc5c(c4)OCO5)ccc3c(=O)c2cc1OC	inconclusive [inhibitor, single point]	
COc1ccc(Cn2c(O)c(/C=N/NC(=O)c3ccncc3)c(=O)[nH]c2=O)cc1		inactive: -2.37%
CC1(NC(=O)CCc2nc3sc4c(c3c(=O)[nH]2)CCCC4)CCS(=O)(=O)C1 (stereo not drawn)	inconclusive [inhibitor, full curve, poor fit]	
COC(=O)c1c(C)oc2ccc(N(C(=O)c3ccncc3)S(=O)(=O)c3ccc(C)cc3C)cc12	active: 1.58 µM	
